Source: the supplement of paper PMC10441789
The list shows a part of the results. Antibody binding of pooled human sera (four to six donors per pool; dilution not stated) to peptides of the Trypanosoma cruzi antigen TSSA on microarrays. Quantile-normalised fluorescence in arbitrary units, mean of duplicate arrays; higher = more binding. No active / inactive call. The uninfected pools are read here as the healthy donors of the same country. The strongest signals lie near the top of the scale (about 60,000).

system: pooled sera of chronic Chagas disease patients, Argentina; assay: antibody binding signal (normalised fluorescence) (arbitrary fluorescence units); higher = stronger serum antibody binding to peptide
Description: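 Microarray of 15-residue peptides over residues 30-55 of Trypanosoma cruzi TSSAII, each with 1 to 10 substitutions at naturally variable positions, probed with one serum pool per country.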

| Sequence | antibody binding signal |
| --- | --- |
| KDKKAAAGEAPSQSG | 210 |
| ENKAATGEAPSQPGA | 29900 |
| DNKTAAGETPSPSGA | 333 |
| GKDKKTAAGEAPSPS | 318 |
| GKDNKAAAGEAPSPP | 2810 |
| GTENKAATGETPSPP | 35600 |
| TDKKTAAGGAPSPPG | 1070 |
| GTDKKPAAGEAPSPS | 537 |
| SGKDKKPAAGGAPSQ | 592 |
| SGTEKKPAAGEAPSQ | 4510 |
| TPPSGTENKPATGGT | 49000 |
| PSGTDKKTATGETPS | 1330 |
| PSGKENKAATGGAPS | 8950 |
| SGKDKKAATGETPSP | 1270 |
| GKDNKTAAGGTPSQP | 1180 |
| GTENKTATGGAPSPP | 25800 |
| TENKAATGGAPSQSG | 29200 |
| NKTATGEAPSQPGAS | 13100 |
| PSGTENKTAAGEAPS | 48000 |
| KDKKTATGEAPSPSG | 4750 |

| Sequence | antibody binding signal |
| --- | --- |
| PPSGTEKKTATGGAP | 26100 |
| NKTATGGTPSQSGAS | 502 |
| TDNKTATGGTPSQPG | 403 |
| KDKKPATGEAPSQPG | 42900 |
| PPSGKEKKPAAGEAP | 1420 |
| PPSGKENKAAAGEAP | 6410 |
| GTDNKPATGGTPSPP | 1520 |
| PSGTDNKPATGETPS | 37300 |
| SGKDNKPATGETPSP | 37500 |
| PSGKENKTATGGTPS | 7140 |
| NKAAAGGTPSQSGAS | 460 |
| SGKEKKAAAGGAPSQ | 3460 |
| TPPSGKDNKAATGET | 5400 |
| TENKAAAGEAPSQPG | 37400 |
| ENKPATGGTPSPPGA | 963 |
| DKKTATGEAPSQSGA | 11200 |
| TDKKAATGEAPSQSG | 21400 |
| ISTPPSGTENKAATG | 51700 |
| GKDNKTATGGTPSPS | 723 |
| SGTENKAAAGGAPSP | 39000 |
